# Reference: the supplement of paper PMC3334620
# Whole data set: some 33,000 sequences, median “E-score (-0.5 to 0.5)” near -0.021, cut for the highest 2% near 0.32. The list shows a part of the results.
# Target: T1, Zap1 (UniProt P47043)
# T1 sequence: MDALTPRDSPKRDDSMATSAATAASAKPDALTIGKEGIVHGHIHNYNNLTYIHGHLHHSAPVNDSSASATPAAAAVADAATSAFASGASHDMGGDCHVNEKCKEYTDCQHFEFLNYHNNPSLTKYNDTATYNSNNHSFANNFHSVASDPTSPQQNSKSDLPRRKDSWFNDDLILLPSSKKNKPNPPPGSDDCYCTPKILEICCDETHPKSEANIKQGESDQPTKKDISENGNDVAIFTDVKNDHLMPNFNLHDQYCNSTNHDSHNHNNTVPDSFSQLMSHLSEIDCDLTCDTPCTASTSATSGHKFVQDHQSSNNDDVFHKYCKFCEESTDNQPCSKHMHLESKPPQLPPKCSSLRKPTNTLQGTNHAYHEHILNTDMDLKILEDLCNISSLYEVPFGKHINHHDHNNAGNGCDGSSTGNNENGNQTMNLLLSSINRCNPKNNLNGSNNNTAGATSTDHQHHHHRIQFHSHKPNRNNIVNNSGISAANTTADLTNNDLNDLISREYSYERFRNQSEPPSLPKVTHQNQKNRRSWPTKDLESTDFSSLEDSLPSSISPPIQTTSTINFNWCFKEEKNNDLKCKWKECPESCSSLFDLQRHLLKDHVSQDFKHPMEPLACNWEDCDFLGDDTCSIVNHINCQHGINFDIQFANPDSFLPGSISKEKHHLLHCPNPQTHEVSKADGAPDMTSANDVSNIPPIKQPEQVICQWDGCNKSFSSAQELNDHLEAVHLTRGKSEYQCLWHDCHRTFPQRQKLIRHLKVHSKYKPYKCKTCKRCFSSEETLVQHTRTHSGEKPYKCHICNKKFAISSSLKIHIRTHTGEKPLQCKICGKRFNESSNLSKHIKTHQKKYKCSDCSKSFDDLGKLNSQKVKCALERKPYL
# Assay: PBM E-score (8-mer binding enrichment) (E-score (-0.5 to 0.5)); higher = stronger / more preferred TF binding; most listed sequences are background and not binding sites
# Conditions: protein concentration: 200 nM; construct: GST-full length
# Procedure, shortened: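 Each ungapped eight-base word and its reverse complement, pooled, received an E-score from the Universal PBM Analysis Suite. Underlying scans, normalised with masliner, recorded fluorescent anti-GST bound to GST-tagged yeast transcription factors. These were applied at about 100-200 nM to universal all-10-mer Agilent arrays double-stranded by primer extension.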
row,Sequence,PBM E-score
1,ACCTAACA,0.205
2,GCTGCACA,-0.142
3,ACTTGAGG,0.0228
4,AGACAGTG,-0.138
5,GAAATCTA,0.0568
6,AGCACAGA,-0.0261
7,AGACTTTA,-0.0915
8,AGGGAATG,-0.0655
9,ATGTCTGG,-0.0336
10,CCTGTCGC,0.07
11,AGAATTCT,0.14
12,CCTTTTTC,0.244
13,GTAGTTTA,0.26
14,GAATAGCA,0.056
15,ACACAAAG,0.11
16,TCGAGCGA,0.00534
17,CAAGTATG,0.0716
18,CAAATCAA,0.0611
19,CCGCACAC,-0.0131
20,AGATCGGA,-0.119
21,CCTGATTA,0.12
22,AATTGTCC,0.0537
23,ACAGTACA,0.0478
24,GCCCTCGC,-0.189
25,GTGTATAA,-0.037

row,Sequence,PBM E-score
1,ATGTGGCG,-0.105
2,CCCGGGCC,-0.0348
3,CACACTCA,0.0991
4,CCGACGCC,0.00541
5,AATAGGGT,0.374
6,CCGACTGA,-0.178
7,ATACACTA,0.133
8,AGCCTCCC,-0.285
9,ATTCAACA,0.0625
10,GAAGTCAA,0.00236
11,AGCCTTTC,-0.185
12,CCTTTAAC,0.352
13,AATCCTTA,0.00386
14,ATTCGCGA,0.0448
15,CCCCCCCG,-0.363
16,AAAAGCCT,-0.297
17,ATAGTCAT,-0.0925
18,CGAATCCG,-0.134
19,CACGCTCC,-0.239
20,CAGATATA,0.165
21,AAGGCGCG,-0.261
22,ATTCCAAT,0.078
23,ATGCAATC,-0.014
24,CGTATGAA,0.101
25,ATGGACTA,-0.0198

row,Sequence,PBM E-score
1,AAACCCGC,-0.0153
2,CTTCTTTA,0.141
3,CACACGAA,0.134
4,ATACCTTC,0.169
5,TGGTTACA,0.395
6,ACCAGAAG,-0.0493
7,ACAGACTA,0.00562
8,ACCTTCAG,0.29
9,CAGGCCGC,-0.235
10,GTAAATTA,0.0174
11,CCGGCTCA,-0.0474
12,ATGCCGAG,-0.145
13,ATTACGCC,-0.109
14,ACTGAGAC,-0.131
15,ATGGCTTC,-0.0944
16,CTGCGAGC,-0.0642
17,ACGCCGAC,-0.111
18,AAATATCC,0.148
19,CGGGTGGA,-0.0426
20,TCGGTTAA,0.274
21,AACCGAAT,0.132
22,ATCTGTCA,-0.0498
23,GCAAGTAA,0.182
24,CTCGATTC,-0.0635
25,ATTTCCGG,0.107

row,Sequence,PBM E-score
1,GTGTGGCA,-0.332
2,ATCTTCAG,0.0589
3,AAATTGGT,0.267
4,CACCTTGG,0.0937
5,CTGCCGGA,-0.107
6,GCAGGCTA,-0.25
7,ACGTGGGC,-0.382
8,CTACCTAC,0.0617
9,CACAGGTA,0.233
10,GGGGTCAC,0.428
11,AACTACTT,0.0669
12,CAAGCGGG,-0.157
13,AGAAATTA,0.198
14,CAACGAAC,0.0604
15,AGAGGAGA,-0.268
16,CTGCCGGC,-0.272
17,GTGGAACA,-0.156
18,GAAACAGA,0.0671
19,TACCCACA,0.219
20,TCTCCCCA,-0.0334
21,GGCCGGTA,0.154
22,TAAGGGTA,0.433
23,ATGCCGGA,-0.189
24,CAATAACC,0.468
25,CCTTATAG,0.262

row,Sequence,PBM E-score
1,ACCCTTCA,0.341
2,TAGATTGA,0.057
3,CCATATCG,-0.0983
4,ACTAAGCC,0.113
5,TCGTGACA,-0.0645
6,CCCCCGGG,0.167
7,AGCACGGG,-0.0256
8,CATACCTA,0.129
9,CAATAGAG,-0.206
10,ACGTGCCG,-0.162
11,GGAGCAGA,-0.229
12,AGAAGGTC,0.237
13,GCCGAGGA,-0.104
14,GAGGTGGA,-0.172
15,ACCGAAGG,0.0422
16,CGCGTAGA,0.166
17,AGAAGTAT,0.0734
18,TACTAAGA,0.107
19,CGACAGAG,-0.178
20,AAGACTGG,-0.239
21,CGAGTCCG,-0.044
22,CAGGGGTC,0.321
23,CCTCGTCG,-0.00814
24,TGGAGCCA,-0.239
25,AGATAGGC,-0.259

row,Sequence,PBM E-score
1,CTAGTTAA,0.144
2,CTGCGGAC,0.0062
3,ACTGCAGA,-0.0714
4,AACTCGGC,0.0542
5,GGGTCCAC,-0.0924
6,ACCACAGC,-0.0509
7,CTGGAAAA,0.151
8,CTTCAGGA,0.107
9,AGTCAAAA,0.0613
10,CCAGCATA,-0.197
11,ACACTTCA,-0.154
12,CCTGATAG,-0.219
13,ATCGGTCC,-0.234
14,AGGCTTGC,-0.326
15,GTCTCGGA,-0.0133
16,AGAGCTCG,-0.039
17,CCCCCCTA,-0.413
18,CGCATATA,-0.056
19,GATATTCC,0.0278
20,GGCGCGTA,-0.119
21,TATGCACA,0.0476
22,TGGGATAA,-0.111
23,ACTTTACC,0.06
24,TCCTAGGA,0.0315
25,GAGTCGAA,0.0323

row,Sequence,PBM E-score
1,ATGATTCC,0.0354
2,CTTGACCC,0.311
3,AGATCAGG,-0.0381
4,GTTCTATA,0.142
5,CTTCATGC,-0.146
6,AGCGTCAC,-0.21
7,AATGACAT,-0.0822
8,TAAAGTAA,0.00117
9,ACCTCAAG,0.251
10,CATTGAAC,0.00729
11,ACATCGGT,-0.00075
12,AAGAGCAA,-0.126
13,CCCATAGA,0.102
14,GTGCGCAC,0.311
15,CGCTAAAA,0.0123
16,ACCGCCAG,0.0908
17,GAAAGTAA,0.0294
18,AAGTGACG,-0.021
19,CCGGATAG,-0.0246
20,ACCAAAAG,0.27
21,GGGGCATA,-0.156
22,AATGCAGC,-0.344
